Screen size: about 350,000 compounds; about 31,000 (8.9%) were called active. Inconclusive means that the source gave no clear call. Such entries were picked first, then a sample of the others. Calls come from the whole dose curve; as a rule, active = well fitted inhibition curve with a large enough effect; inconclusive = small, poorly fitted or top-dose-only effect; inactive = no such curve, though single readings can be large or run the other way. Potencies of inconclusive entries are doubtful fits and often do not repeat. A structure can be active in one record and inactive in another.
target: Histone-lysine N-methyltransferase EHMT2 (Homo sapiens) (UniProt Q96KQ7); experiment: qHTS Assay for Inhibitors of Histone Lysine Methyltransferase G9a; details: G9a H3K9 monomethylation, AlphaScreen, 2 h; activity, negative = inhibition: at 59 µM (top of the series) unless noted; note: nearly all actives have a fitted effect of over 75% in size
UniProt Q96KQ7, sequence (Q96KQ7 whole entry, looked up): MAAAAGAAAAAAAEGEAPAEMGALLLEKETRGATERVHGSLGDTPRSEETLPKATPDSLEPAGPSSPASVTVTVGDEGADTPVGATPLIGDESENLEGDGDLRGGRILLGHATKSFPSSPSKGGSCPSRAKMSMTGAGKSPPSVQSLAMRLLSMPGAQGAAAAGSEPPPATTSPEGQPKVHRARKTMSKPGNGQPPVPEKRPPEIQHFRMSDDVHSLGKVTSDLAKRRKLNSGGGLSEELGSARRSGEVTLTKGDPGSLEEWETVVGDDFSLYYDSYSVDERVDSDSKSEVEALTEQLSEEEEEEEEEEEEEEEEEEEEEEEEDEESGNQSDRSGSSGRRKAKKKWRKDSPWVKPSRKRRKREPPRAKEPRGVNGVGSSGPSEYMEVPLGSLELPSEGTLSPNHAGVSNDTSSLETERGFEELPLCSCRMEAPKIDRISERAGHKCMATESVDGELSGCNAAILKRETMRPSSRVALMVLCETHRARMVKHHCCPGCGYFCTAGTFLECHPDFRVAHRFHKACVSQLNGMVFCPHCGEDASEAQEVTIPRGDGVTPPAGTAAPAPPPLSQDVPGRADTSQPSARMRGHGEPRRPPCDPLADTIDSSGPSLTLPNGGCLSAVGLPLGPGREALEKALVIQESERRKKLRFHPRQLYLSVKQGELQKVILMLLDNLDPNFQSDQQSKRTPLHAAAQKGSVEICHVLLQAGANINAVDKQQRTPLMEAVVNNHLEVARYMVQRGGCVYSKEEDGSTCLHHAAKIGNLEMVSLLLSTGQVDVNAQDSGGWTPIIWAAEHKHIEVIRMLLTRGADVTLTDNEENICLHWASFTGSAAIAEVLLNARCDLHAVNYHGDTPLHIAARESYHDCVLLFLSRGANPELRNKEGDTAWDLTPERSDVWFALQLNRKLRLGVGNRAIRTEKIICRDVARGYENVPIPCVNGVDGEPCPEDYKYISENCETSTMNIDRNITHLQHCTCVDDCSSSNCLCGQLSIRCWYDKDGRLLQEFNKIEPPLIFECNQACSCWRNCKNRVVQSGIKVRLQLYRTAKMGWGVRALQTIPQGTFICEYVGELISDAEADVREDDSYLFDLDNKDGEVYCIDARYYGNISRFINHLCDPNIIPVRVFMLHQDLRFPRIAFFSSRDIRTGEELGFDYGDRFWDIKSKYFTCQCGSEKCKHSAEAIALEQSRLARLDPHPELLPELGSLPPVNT
Summary of the method: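 Quantitative HTS format: methyltransferase activity on a biotin-tagged H3K9 peptide is measured by AlphaScreen, using a rabbit anti-monomethyl-H3K9 antibody with streptavidin donor and anti-IgG acceptor beads. Final levels are 20 nM enzyme, 500 nM peptide, 20 uM SAM; 2 h RT.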
% is set by controls: 0 for no effect and ±100 for the full control effect; potency is the fitted concentration of half-maximal effect; tags give direction and shape of the fitted curve.

Compound	activity, negative = inhibition	Potency
Cc1ccc2c(c1)c(=O)c(S(=O)(=O)c1ccc(C)c(C)c1)cn2CC(=O)Nc1ccccc1	inactive: -1.81%	–
Cc1cccc2c1N(CCCOc1ccc(C(C)(C)C)cc1)C(=O)C2=O	–	active: 10 µM
CN(C)c1ncc2nc(-c3cccs3)c(=O)n(C)c2n1	inactive: 11.2% [at 0.501 µM]	–
N=C(N)SCc1ccccn1	–	inconclusive: 3.55 µM [inhibitor, full curve, poor fit]
Cn1cc(C(=O)NCCc2ccc(Cl)cc2)c(=O)c2cc(S(=O)(=O)N3CCCCC3)ccc21	inactive: 8.37%	–
CCOc1cccc(-c2nn(-c3ccccc3)cc2/C=C(/C#N)C(=O)NCCCn2ccnc2)c1	–	inconclusive: 39.8 µM [inhibitor, single point]
CC(C)(C)C(=O)Nc1cc(NC(=O)C(C)(C)C)cc(C(=O)NNC(=O)c2ccncc2)c1	–	inconclusive: 35.5 µM [inhibitor, single point]
CCOC(=O)c1c(NC(=O)CC)sc(C(C)=O)c1C	–	active: 25.1 µM
COC(=O)c1ccc(C(=O)OCCCc2nc3ccc(N)cc3[nH]2)cc1	inactive: -6.59%	–
Oc1cc(Cc2ccccc2)cnc1CN1CCCCC1	–	inconclusive: 3.98 µM [inhibitor, full curve, poor fit]
CN1/C(=C/c2cc[n+](C)c3ccccc23)C=Cc2ccccc21	–	active: 35.5 µM
Clc1ccc(Nc2ncnc3c2cnn3-c2ccccc2)cc1	–	inconclusive: 79.4 µM [inhibitor, partial curve]
Nc1nc(CSc2nc3ccccc3[nH]2)cs1	–	inconclusive: 25.1 µM [inhibitor, single point]
COC(=O)CC1C(=O)NCCN1C(=O)c1ccc(S(=O)(=O)N2CCOCC2)cc1 (configuration not stated)	–	inconclusive: 89.1 µM [inhibitor, partial curve, poor fit]
COc1ccccc1N1CCN(C(=O)c2sc3nc(C)nc(N4CCN(c5ccccn5)CC4)c3c2C)CC1	–	active: 25.1 µM
C(=N\N1CCN(c2ccccn2)CC1)/c1ccccn1	–	inconclusive: 50.1 µM [inhibitor, partial curve]
COc1ccc(N2CCN(CC(O)COc3cc(C)ccc3C)CC2)cc1 (configuration not stated)	–	active: 8.91 µM
O=C(Nc1ccccc1N1CCOCC1)c1cc(-c2ccco2)nc2ccccc12	–	inconclusive: 14.1 µM [inhibitor, partial curve, poor fit]
COc1ccc(N2CCN(C(=O)Cn3nc(Cc4cccnc4)c4ccccc4c3=O)CC2)cc1	–	inconclusive: 20 µM [inhibitor, partial curve, poor fit]
OC1(c2ccc(Cl)cc2)CN(c2ccccc2)C2=[N+]1CCS2 (configuration not stated)	inactive: -3.63% [at 102 µM]	–
CC(=O)Nc1ccc(NC(=O)C(C)OC(=O)C2CCCCC2)cc1 (configuration not stated)	inactive: 1.86% [at 12.7 µM]	–
Cc1ccc(Nc2ncnc3c2nc2n3CCCC2)c(Br)c1	inactive: -9.54%	–
CC(C)(C)NC(=O)CSc1nc2ccccc2n1-c1ccccc1	inconclusive: -87.6% [inhibitor]	–
CC(=O)NNC(=O)c1nc(-c2ccccc2)c(C)o1	–	inconclusive: 22.4 µM [inhibitor, full curve]

Compound	activity, negative = inhibition	Potency
COc1cc(-c2nnc(CSc3nnc(Nc4ccc(Oc5ccccc5)cc4)s3)o2)cc(OC)c1OC	–	inconclusive: 17.8 µM [inhibitor, full curve]
Cc1ccc(NC(=O)CN(C)CC(=O)Nc2ccccc2C(=O)Nc2ccccc2)cc1	inactive: 2.55% [at 102 µM]	–
CCOc1ccc(C(=O)NCC(c2ccc3c(c2)OCO3)N2CCN(c3ccc(F)cc3)CC2)cc1 (configuration not stated)	–	inconclusive: 22.4 µM [inhibitor, single point]
CCCC(CCC)C(=O)Nc1cccc(-c2nc3cccnc3s2)c1	inactive: -46.5%	–
COC(=O)c1ccccc1OCC(=O)N1CCN(c2ccc(OC)cc2)CC1	inconclusive: -60.8% [inhibitor]	–
COc1cc(CNC2CCCC2)cc(OC)c1	–	active: 44.7 µM
COC(=O)c1ccccc1NC(=O)Nc1cccs1	–	inconclusive: 28.2 µM [inhibitor, single point]
COc1cc(S(=O)(=O)N2CCOCC2)cc(C(=O)OCC(=O)NCc2ccco2)c1OC	inactive: 25.5%	–
CCn1c(SCC(=O)c2cc(C)n(CC3CCCO3)c2C)nc2ccccc21 (configuration not stated)	–	active: 17.8 µM
Oc1ccccc1C1CC(c2cccs2)=NC(c2ccc(Cl)cc2)N1 (configuration not stated)	–	inconclusive: 70.8 µM [inhibitor, partial curve]
Cc1cc(CN(C)C(=O)CC2C(=O)NCCN2Cc2c(F)cccc2Cl)n[nH]1 (configuration not stated)	–	active: 39.8 µM
S=C(NCc1ccco1)Nc1cccc(Cl)c1Cl	–	inconclusive: 31.6 µM [inhibitor, single point]
Cc1ccc(O)c(C2=NOC(O)(C(F)(F)C(F)F)C2)c1 (configuration not stated)	–	inconclusive: 79.4 µM [inhibitor, partial curve, poor fit]
CC(C)OC(=O)CSc1nc(N)c(C#N)c(-c2ccco2)c1C#N	–	inconclusive: 20 µM [inhibitor, single point]
NS(=O)(=O)c1ccc2c(c1)C(=NO)c1cc(S(N)(=O)=O)ccc1-2	–	inconclusive: 89.1 µM [inhibitor, single point]
CCCCn1c(-c2ccc([N+](=O)[O-])cc2)n[nH]c1=S	–	inconclusive: 0.631 µM [inhibitor, full curve, poor fit]
Cc1ccc(NC(=O)C(c2ccccc2)N2CCN(C(=O)c3ccco3)CC2)cc1 (configuration not stated)	inactive: -37.3% [at 12.7 µM]	–
CCCCC1C(=O)N(c2ccccc2)N(c2ccccc2)C1=O	–	active: 10 µM
NC1=CC(=O)c2cccc3cccc1c23	–	inconclusive: 1.26 µM [inhibitor, full curve, poor fit]
O=C(Nc1ccccc1C(=O)Nc1nnc(C(F)(F)F)s1)c1ccccc1Cl	inactive: -3.64% [at 102 µM]	–
O=c1[nH]nc(CNc2ccc(O)cc2)c2ccccc12	–	active: 11.2 µM
Cc1n[nH]c(=S)n(NC(=O)/C=C/C(=O)Nn2c(=S)[nH]nc(C)c2=O)c1=O	–	inconclusive: 35.5 µM [inhibitor, single point]
CC1(C(=O)NCCCNc2ncc(C(F)(F)F)cc2Cl)C=CCN1C(=O)c1ccccc1 (configuration not stated)	–	inconclusive: 89.1 µM [inhibitor, single point]
CCOC(=O)c1sc(N2C(=O)C(O)=C(C(=O)c3ccc(C)o3)C2c2ccc(OC)c(OC)c2)nc1C (configuration not stated)	inactive: 24.4% [at 102 µM]	–

Compound	activity, negative = inhibition	Potency
CCOc1ccc(CNC(=O)CCCc2cn(C)c3ccccc23)cc1	–	inconclusive: 89.1 µM [inhibitor, single point]
CC(Oc1ccc(Br)cc1)C(=O)NNC(=O)CCN1CCN(c2ccccc2)CC1 (configuration not stated)	–	inconclusive: 50.1 µM [inhibitor, partial curve]
CCOC(=O)c1ccccc1NC(=O)CSc1cc(C)[nH]c(=O)n1	inactive: -2.57%	–
CCCn1c(C(CO)Nc2nc(-c3cccc(Br)c3)cs2)nc2ccccc21 (configuration not stated)	–	active: 44.7 µM
Cc1nc2c(sc3nc(N4CCOCC4)c4c(c32)CC(C)(C)OC4)c(-c2ccc(Cl)cc2)c1C(=O)O	inactive: 3.32% [at 102 µM]	–
Cc1ccc(CN2CCN(C3CCN(C(=O)c4ccc(C)cc4)CC3)C(=O)C2=O)cc1	inactive: -0.0761%	–
O=C(CSc1c(Cl)cccc1Cl)NC1CCCc2ccccc21 (configuration not stated)	–	inconclusive: 70.8 µM [inhibitor, partial curve, poor fit]
O=c1oc2ccccc2cc1-c1ccc(O)cc1	–	inconclusive: 89.1 µM [inhibitor, single point]
CCN(CC)c1ccc(/C=N/NC(=O)c2cnccn2)cc1	–	active: 56.2 µM
COC(=O)CCC(=O)OC1(C)C(=O)C=C2C=C(C3CC3)N(CCCCO)C=C2C1=O (configuration not stated)	inactive: 28.8%	–
Cc1ccc(NC(=O)c2cc(=O)[nH]c3ccc(S(=O)(=O)N4CCOCC4)cc23)nc1	–	inconclusive: 79.4 µM [inhibitor, single point]
COc1ccc(-c2nnc(SCc3ccccc3F)o2)cc1	–	inconclusive: 1.41 µM [inhibitor, single point]
Cc1cnc(C(=O)Nc2ccccc2-c2nnn(CC(=O)NC3CCCC3)n2)cn1	–	inconclusive: 1 µM [inhibitor, partial curve, poor fit]
O=C1COc2ccc(C(=O)COC(=O)c3ccc4ccccc4n3)cc2N1	–	inconclusive: 39.8 µM [inhibitor, single point]
COc1ccc(OC)c(Nc2ncc3c(n2)CCN(Cc2cc(OC)c(OC)c(OC)c2)C3)c1	–	inconclusive: 20 µM [inhibitor, partial curve, poor fit]
C/C(=N\OCc1nc2ccccc2c(=O)n1/N=C/c1cc([N+](=O)[O-])ccc1O)c1ccccc1	–	active: 39.8 µM
COC(=O)C1(C(=O)OC)NOC2C(=O)N(N(C)c3ncc(C(F)(F)F)cc3Cl)C(=O)C21 (configuration not stated)	–	inconclusive: 50.1 µM [inhibitor, partial curve]
Cc1ccc(CNc2ccc(O)cc2)cc1	–	inconclusive: 1.58 µM [inhibitor, partial curve, poor fit]
Cc1ccc(Nc2nc3ccccc3c3nnc(C)n23)cc1Cl	inactive: 0.465%	–
CN(C)c1ccc(C(=O)N/N=C/c2ccccn2)cc1	–	active: 7.94 µM
O=C(CNc1ccc(Oc2ccccc2)cc1)N1CCOCC1	–	inconclusive: 3.55 µM [inhibitor, single point]
CC(C)C(=O)N1c2nc(C(C)C)nn2C2(CCCCC2)[C@@H]2CCCC[C@@H]21	inactive: 1.63%	–
CCCc1cc(C(=O)NCCc2ccc(OC)c(OC)c2)no1	–	inconclusive: 25.1 µM [inhibitor, single point]
O=C(N/N=C/c1ccc(OC(=O)c2ccccc2)cc1)c1cccnc1	–	active: 20 µM

Reference: PubChem BioAssay AID504332 (National Center for Advancing Translational Sciences (NCATS), 2011)
